Results published in ChEMBL document CHEMBL4888484, “Replenishing the malaria drug discovery pipeline: Screening and hit evaluation of the MMV Hit Generation Library 1 (HGL1) against asexual blood stage Plasmodium falciparum ,using a nano luciferase reporter read-out” (2022).
Screen size: about 150,000 compounds; about 540 (0.36%) showed an effect of 50% or more. The list shows a part of the results.

Tested on: Plasmodium falciparum
Test: Primary screen in NF54 nanoGlo assay, in single point, at 2uM, 72h; a lower Z score goes with more inhibition
Assay type: functional, Erythrocyte
Settings: timepoint 72 hour

Compound | % Inhibition | Z score
CCN(Cc1ccncc1)CC1CCN(c2ccccn2)CC1 | -12% | 1.55
O=C(Cc1nnc(-c2ccccc2)o1)NCc1cccnc1 | 1% | -0.18
c1cnc(N2CCOC3CCCCC32)cn1 (stereo not given) | -6% | 0.92
CC(C)c1nc2n(n1)CCCC2NC(C)c1cccc(O)c1 (stereo not given) | 7% | -0.87
Cc1noc(C2CN(CCCc3ccccc3)C2)n1 | -7% | 1.37
O=C(Nc1ccccc1N1CCCC1)c1ccc2[nH]c3c(c2c1)CCCC3 | -1% | 0.21
Cc1c2c(nc3c(C(=O)NC4CCCCC4C)cnn13)CCCC2 (stereo not given) | -12% | 1.57
C[C@@]1(C(=O)NCc2cccs2)CCCCC(=O)N1 | 3% | -0.4
CC(=O)N1CC(OCC(=O)N(C)c2ccccc2Oc2ccccc2)C1 | -13% | 2.36
C[C@H]1CCOCCN1C(=O)c1ccc(-n2cc[nH]c2=O)cc1 | -3% | 0.62
CC(C)CC(=O)N(Cc1ccccc1)[C@H]1CCS(=O)(=O)C1 | 1% | -0.08
C=CCC1(O)CN(C(=O)CCCOCC)C1 | 2% | -0.34
Cc1ccc(C)c(CC(=O)N2C[C@@H](CN3CCCN(C)CC3)[C@@H](CO)C2)c1 | 4% | -0.49
Cc1cc([C@@H](NC(=O)CN2CCCCC2=O)C2CC2)ccc1F | 3% | -0.35
CCC(NC(=O)N1CCCC1Cn1ccnc1)c1c(C)noc1C (stereo not given) | 5% | -0.72
CCN1CCN(C(=O)COCc2nnc(C(=O)Nc3cccc(Cl)c3)s2)CC1 | -11% | 1.58
Cc1ccsc1CNC(=O)c1ccc(OCc2ccccc2)cc1 | -2% | 0.43
CCn1ccc(C(=O)N2Cc3ncccc3N3CCC[C@H]3C2)n1 | -1% | 0.17
O=C(CCc1nc2ccccc2c(=O)[nH]1)N1CCOC2CCCCC21 (stereo not given) | -5% | 0.75
C#CCN1CCN(C(=O)CN(CCC)CC(F)F)CC1 | 1% | -0.05
CCN1C(=O)[C@](C)(C(=O)Nc2ccc(F)cc2F)Oc2cccnc21 | -8% | 1.44
COCC(=O)NC1C2CCCN(c3cc(C(C)(C)C)nc(C(C)C)n3)C2C1(C)C (stereo not given) | -9% | 1.17
CN1CCN([C@H]2CN(C(=O)c3cccc(N(C)C)c3)C[C@@H]2O)CC1 | -4% | 0.51
CC(C)[C@@](C)(O)CNS(=O)(=O)C1CC1 | -11% | 1.56
CNc1cc(C(=O)N[C@H]2COC[C@@H]2OC)ccn1 | -14% | 2.07
